# Reference: the supplement of paper PMC4466236
# Over roughly 33,000 sequences, “E-score (dimensionless, -0.5 to 0.5)” has its median near -0.058; the highest 2% begin near 0.35. The list shows a part of the results.
# System: MvaT
# Assay: PBM 8-mer E-score (mean of HK and ME arrays) (E-score (dimensionless, -0.5 to 0.5)); higher = stronger relative binding preference; most listed sequences are background and not binding sites
# How it was run: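 Reported values are rank-based E-scores, taken as the mean of two universal arrays and parsed with a custom script. Each 8-mer score falls between -0.5 and 0.5. The arrays, ME and HK, were double-stranded 60-mers with a constant 25-mer primer region and a variable 35-mer region covering all 8-mers. They were probed, by an earlier protocol, with full-length P. aeruginosa MvaT carrying an N-terminal glutathione S-transferase fusion.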
row,Sequence,PBM 8-mer E-score
1,CTGGCCGC,-0.21
2,CTCAGTAA,-0.000396
3,AATTAAGC,0.328
4,CCTGAGTA,-0.224
5,CTTGGTGA,-0.0334
6,ACCTACAG,-0.152
7,CTCCGTGA,-0.0547
8,ACATACAG,0.111
9,CCAATTAC,0.237
10,AATGGTAG,0.102
11,GTCGCTGA,-0.129
12,GACCACAA,-0.0932
13,CATCAAGG,-0.195
14,GTACTAAC,0.174
15,CCGAAAAC,-0.103
16,AAGACTGA,0.0304
17,GAGACTAC,-0.0909
18,ACGGCAAA,0.0774
19,AGCCCCCC,-0.303
20,CAATATCG,0.18
21,ACCCTTTA,0.0505
22,CCATTACA,0.038

row,Sequence,PBM 8-mer E-score
1,CGGAGCCA,-0.2
2,GAGGGCAC,-0.242
3,ATTATAAG,0.432
4,GCTTAGGA,-0.121
5,AAAAGCGA,0.0963
6,GTCCTTGA,-0.179
7,CCTATGCG,-0.105
8,AACCGTCG,-0.0206
9,ATCCCGCA,0.000229
10,CATCGTGC,-0.0373
11,GCATCTTA,-0.0529
12,CGCAGAGC,-0.227
13,CTAACTGC,-0.0134
14,AACCCCCC,-0.244
15,ATGCCCCC,-0.267
16,GCAATGCA,0.0608
17,AGAGCCTG,-0.235
18,AGTCAGAC,-0.171
19,GAAAATGC,0.139
20,CCTATCAG,-0.115
21,AGCCGATC,-0.101
22,CAGATACC,-0.135

row,Sequence,PBM 8-mer E-score
1,ATCAACGG,0.0684
2,ACTGGTTG,-0.0477
3,AGAGATAG,0.0665
4,GCCGGGCA,-0.299
5,ATACTTGA,0.205
6,TCTAAGAA,0.0655
7,ACAATTAC,0.319
8,AGACCGCG,-0.289
9,ACTCGTAG,0.0626
10,GCCAGCGC,-0.226
11,AACCCCTA,-0.0403
12,CAGACTGC,-0.226
13,GTGAATGA,-0.0318
14,ACTTTGGG,0.0887
15,AAGGTACG,-0.241
16,ATCCACCG,-0.212
17,CCCTTGAA,-0.206
18,ACCGCTAT,-0.0105
19,TAAGGAGA,-0.0995
20,ATGTTTCG,0.184
21,CGTGGTAA,-0.119
22,ATTTGTGC,0.123

row,Sequence,PBM 8-mer E-score
1,CCACCTGG,-0.304
2,CTCTAGTA,0.0412
3,AATTCTTC,0.0851
4,ACCACGAT,-0.0459
5,GCTCGTGA,-0.257
6,AGTAGTCC,0.0107
7,AAGTGGCG,-0.0358
8,CATTCTGG,-0.0978
9,CTGAAGGA,-0.26
10,CTCTAACA,0.0091
11,CATTACAC,0.163
12,GGTTCTAA,-0.0459
13,CGATATGC,0.0342
14,GTCCACCA,-0.0903
15,CAGTTTGG,-0.0519
16,GCGTGAGC,-0.305
17,CCTCTTTC,-0.0319
18,CATACACA,0.111
19,AATTAAAA,0.373
20,ATTCCCGA,-0.0402
